The campaign covered roughly 340,000 compounds. About 6,900 (2%) were called active. No stated cut-off is given here; in the data, active means inhibition above about 30%; inactive means below that, where a call was filed. This is a selection; strong and weak results do not stand in their true shares. Where no call is shown, the source filed none.

Sequence of UniProt P14416 (P14416 whole entry, looked up): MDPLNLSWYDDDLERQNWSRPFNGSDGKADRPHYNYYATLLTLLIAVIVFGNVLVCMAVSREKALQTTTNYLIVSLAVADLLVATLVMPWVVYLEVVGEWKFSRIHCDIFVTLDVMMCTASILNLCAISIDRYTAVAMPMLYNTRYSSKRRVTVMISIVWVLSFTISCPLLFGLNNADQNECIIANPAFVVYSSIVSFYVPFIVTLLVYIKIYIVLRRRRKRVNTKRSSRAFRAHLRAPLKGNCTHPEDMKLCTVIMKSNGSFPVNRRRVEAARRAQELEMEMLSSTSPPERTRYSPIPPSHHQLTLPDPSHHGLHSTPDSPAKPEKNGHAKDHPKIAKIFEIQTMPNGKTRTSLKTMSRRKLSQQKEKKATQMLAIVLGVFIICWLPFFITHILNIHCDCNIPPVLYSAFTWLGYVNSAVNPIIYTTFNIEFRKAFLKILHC

The target in the assay is D(2) dopamine receptor (Homo sapiens) (UniProt P14416). Briefly: HTS Assay for Allosteric Antagonists of the Human D2 Dopamine Receptor: Primary Screen for Antagonists. Further: 0% is about no effect. Particulars: HEK293 TREx D2 cells, calcium flux, dopamine EC80; at 10 µM; stronger effect = higher value. In short, it runs like this:
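Compounds are added to dye-loaded, induced HEK293 T-REx cells coupled to calcium release via D2; after a 3 min kinetic read an EC80 dopamine stimulus is given and fluorescence is recorded for 3 more min.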
On the technique in general: A change in cytosolic calcium serves as a functional read-out for many receptors and channels.
Broadly, the inhibition is the change of the read-out against control, counted positive when it falls. On to `CCCC12CN3CC(CCC)(CN(C1)C3c1ccc(OC(C)C)cc1)C2=O` (configuration not stated), for which the inhibition is 0.105%. Next, `COc1ccc(-c2noc(-c3ccc(N4CCN(c5ccccc5OC)CC4)c([N+](=O)[O-])c3)n2)cc1`: -11.8%; `CC(=O)c1cccc(NC(=O)CC2SC(N3CCCCC3)=NC2=O)c1` (configuration not stated): active: 45.3%. For the compound `CCOc1ccc(NC(=O)CSc2nnc(CNC(=O)C34CC5CC(CC(C5)C3)C4)n2CC)cc1`, the inhibition is 11.6%. Next, `CCOC(=O)c1ccccc1NC(=O)Nc1cc2c(cc1N1CCCC1)n(C)c(=O)n2C`: 13.8%; `Cc1cc2oc(C(=O)Nc3cccc(-c4nc5ccccc5o4)c3)c(C)c2cc1C`: 9.08%. `COc1ccc(-n2nc3cc(C)c(NC(=O)Cc4ccc(Cl)cc4)cc3n2)cc1`: the inhibition was -8.8%.

`COc1ccc(OC)c(CNC(=O)CN2N=C(c3ccc(Cl)cc3)CCC2=O)c1`: the inhibition is 4.2%. Next, `O=C(NCCc1ccc(Cl)cc1)C(=O)NCC(c1cccs1)S(=O)(=O)c1cccs1` (configuration not stated): -3.35%; `CC(C)Oc1ccc(CNC(=O)c2ccc3c(c2)N(C)CCS3)cc1`: active: 46.6%.

Take `COc1ccc(C(=O)Nc2cc(-c3nc4ccccc4s3)ccc2OC)cc1`: the inhibition was found to be 10.4%. Regarding `COC(=O)C1=C(C(=O)OC)N2C=CC=CC2(C)C(C(=O)OC)=C1C(=O)OC` (configuration not stated), the inhibition was active: 32.3%.

Take `O=C(Nc1ccc2nc(SCC(=O)N3CCOCC3)sc2c1)c1ccc(Br)cc1`: the inhibition is -11.5%.

Take `CCC(C)NC(=O)CSc1c2c(nc3cc(Cl)ccc13)CCCC2` (configuration not stated): the inhibition is -5.09%. Next, `COc1cccc(CNC(=O)C(=O)NCC(c2ccc3c(c2)OCO3)N2CCOCC2)c1` (configuration not stated): -7.17%.

Take `CCCOC1(C(F)(F)F)NC(=O)N(c2cccc(Cl)c2)C1=O` (configuration not stated): the inhibition was determined as 1.05%.

Turning to `CCOC(=O)N1CCN(S(=O)(=O)CCNC(=O)c2ccc(OC)cc2)CC1`, the inhibition is active: 34.1%. Under `CCCN1CCN(CC2=C(C(=O)OCC)C(c3ccc(OC(C)C)cc3)NC(=O)N2)CC1` (configuration not stated) stands -6.8%; under `CSc1nc2c(sc3ccccc32)c(=O)n1Cc1ccc(C)cc1`, 0.848%; under `CCn1c(=O)c(=O)n(CC)c2cc(N3CCCCC3)c(NC(=O)c3ccccc3OC)cc21`, 4.25%.

As to `CC1CCC(=NNC(=O)Cc2ccccc2)CC1` (configuration not stated), the inhibition was active: 43.5%. Next, `CCOc1ccc(-c2nc(CSCC(=O)NCCc3ccc(OCC)c(OCC)c3)c(C)o2)cc1`: -15.5%. Next, `COc1ccccc1-c1c(C)nn2c(N3CCN(c4ccccc4)CC3)cc(C)nc12`: 10.9%. Under `Cc1ccc(Cl)cc1NC(=O)C1CCCN(c2cnccn2)C1` (configuration not stated) stands -14.9%; under `O=C(NCc1ccccc1)C(=O)NCC(c1ccco1)S(=O)(=O)c1cccs1` (configuration not stated), -7.2%; under `CCc1nn(CC(=O)Nc2cccc(C(C)=O)c2)c(=O)c2cc3sccc3n12`, 13.5%. On to `CCS(=O)(=O)c1ncc(Cl)c(C(=O)NCc2ccc(OC)cc2)n1`, for which the inhibition is -12.9%.

In the case of `CN(C)c1ccc(C(CNS(=O)(=O)c2ccc(Cl)cc2)N2CCOCC2)cc1` (configuration not stated), the inhibition was -11.8%. Under `CCOC(=O)c1ccccc1NC(=O)Cn1c(=O)n(Cc2nc(C)no2)c(=O)c2ccccc21` stands -15.5%. Next, `CN(c1ccccc1C(=O)O)S(=O)(=O)c1ccc2[nH]c(=O)oc2c1`: -8.71%. Next, `O=C(CCn1c(=O)c2ccccc2n(Cc2cccc(Cl)c2)c1=O)NCCc1ccccc1`: -6.98%; `CSc1ccc(CCNC(=O)c2ccc3c(Cl)c4c(nc3c2)CCCC4)cc1`: -13.7%; `CCCSc1ncc(Cl)c(C(=O)Nc2nc3ccc(C)cc3s2)n1`: 12.9%. In the case of `CCc1ccccc1NC(=O)Cn1nc(C(F)(F)F)c2c1CCC2`, the inhibition was determined as 0.788%. Next, `Cc1cc(C)c2c(CC(=O)Nc3ccccc3C(F)(F)F)coc2c1`: 0.27%.

Regarding `COc1ccc(S(=O)(=O)c2c(O)c3ccc(C(=O)Nc4ccccc4)cc3[nH]c2=O)cc1`, the inhibition was -3.7%. Next, `Cc1cccc(N2CCN(C(=O)C3CCN(c4ncnc5c4nc4n5CCCCC4)CC3)CC2C)c1` (configuration not stated): 27.1%; `COc1cc(Nc2ncc3c(n2)CCN(Cc2cccc(C)c2)C3)cc(OC)c1`: 1.05%. Take `Cn1c(=O)c2c(nc(Oc3ccccc3Cl)n2Cc2ccc(C#N)cc2)n(C)c1=O`: the inhibition worked out at 24.7%. Next, `Cn1nnnc1SCCCNCc1cccc(OCc2ccc(F)cc2)c1`: -6.91%; `Cc1oc2c(C)c3oc(=O)c(CC(=O)N4CCCCC4)c(C)c3cc2c1C`: 15.8%; `CCc1nn(C(C)C(=O)N2CCN(c3ccccc3)CC2)c(=O)c2cc3occc3n12` (configuration not stated): 0.576%. Next, `CCCN(CCC)C(=O)C(Cc1ccccc1)NS(=O)(=O)c1ccc2c(c1)c(=O)n(C)c(=O)n2C` (configuration not stated): -5.47%; `Cc1ccccc1CCNC(=O)C1CCN(S(=O)(=O)c2ccc3c(ccn3C)c2)CC1`: -7.76%. As for `Cc1cccc(C)c1NC(=O)Cn1nnc(C(=O)NCc2ccc(F)cc2)c1N`, the inhibition was 8.33%.

As for `CS(=O)(=O)c1ccc2nc(NC(=O)C3CCCCC3)sc2c1`, the inhibition was active: 30.6%. Under `O=C(NCc1ccccc1)c1cc2ccc3cccnc3c2[nH]1` stands -11.6%; under `CCc1ccc(-n2c(=O)c3c4c(sc3n(CC(=O)c3ccc(Br)cc3)c2=O)CCC4)cc1`, -22.5%. Next, `CC(C)(C)NC(=O)c1oc2ccccc2c1NC(=O)c1ccccc1F`: -4.28%; `Cc1ccc(S(=O)(=O)Nc2ccc3nc(-c4ccc(F)cc4)oc3c2)cc1`: 15.6%. With `CC1=C(C(=O)N2CCN(c3ccccc3)CC2)C2(CCCCC2)OC1=O`, the inhibition was -1.16%. Take `CCC(C)NC(=O)CCC(=O)N1Cc2ccccc2Oc2ncccc21` (configuration not stated): the inhibition was determined as 10%. For `COc1cc(NC(=O)Cn2c(=O)ccc3cc(S(=O)(=O)N4CCCC4)ccc32)cc(OC)c1`, the inhibition was -3.03%. Under `Cc1ccc(CNC(=O)c2c(C)oc3ncnc(N4CCOCC4)c23)cc1` stands -7.51%; under `Cc1ccc(-n2nc(C)c(C(=O)O)c2-n2cccc2)cc1`, 5.93%; under `COc1ccc(CNC(=O)c2cc3ccccn3n2)cc1OC`, -3.36%.

`COc1ccc(/C=C\c2onc(C)c2S(=O)(=O)N2CCC(C(=O)Nc3cccc(OC)c3)CC2)cc1`: the inhibition came out at 10.7%. Next, `CCOC(=O)c1c(C)[nH]c(C)c1S(=O)(=O)N(C)CC(=O)Nc1ccc(CC)cc1`: 14.6%; `COc1ccc(/C=N/NC(=O)CCN2CCN(c3ccccc3)CC2)c(OC)c1OC`: active: 84%. Next, `Cn1c(C(=O)NCCN2CCN(c3ccccc3F)CC2)cc2c(=O)n(C)c3ccccc3c21`: active: 95.5%.

`N#Cc1c(-n2ncnc2-c2ccc(F)cc2)sc2c1CCCCC2`: the inhibition was found to be 6.25%. Next, `O=C(CSCc1cnn(-c2ccccc2)c1-n1cccc1)NCc1cccc(Cl)c1`: -26.9%.

Source of the values: PubChem BioAssay AID485344 (National Center for Advancing Translational Sciences (NCATS), 2010).
